# From the supplement of paper PMC4604168 (melanoma cell lines)
# This is one part of the list. Many values rest on one well or one pass, so single values are uncertain.
# How the values were obtained:
# Assay in all cases: cell count relative to DMSO control; melanoma cells; higher = more viable cells
# Conditions in all cases: library dose: low library concentration; 72 h
# [1] = test system: WM115
# [2] = test system: WM1716
# [3] = test system: WM1745
# [4] = test system: WM3526
# [5] = test system: WM3619
# [6] = test system: WM451Lu
# 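Further: cell number obtained by counting DAPI-stained nuclei in high-throughput microscope images with image analysis software, screen run in 1,536-well plates.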
smiles,measurement,setting,value
"O=c1[nH]nc(Sc2ncc([N+](=O)[O-])s2)n1-c1ccc2c(c1)OCCO2 + Oc1cc(-c2nc(-c3ccccc3)[nH]c2-c2ccncc2)ccc1Cl [L779450] (first compound 0.2 µM, partner dose 0.2 µM)",cell count,[1],85.3%
same,cell count,[2],112%
same,cell count,[3],85.6%
same,cell count,[4],84.5%
same,cell count,[5],110%
same,cell count,[6],103%
"COc1cc(Nc2ncc(F)c(Nc3ccc4c(n3)NC(=O)C(C)(C)O4)n2)cc(OC)c1OC [Tamatinib] + CCc1ccc(CCOc2ccc(CC3SC(=O)NC3=O)cc2)nc1 [pioglitazone] (first compound 0.4 µM, partner dose 2 µM)",cell count,[1],97.6%
same,cell count,[2],89.7%
same,cell count,[3],83.3%
same,cell count,[4],99.7%
same,cell count,[5],100%
same,cell count,[6],104%
"COc1cc(Nc2ncc(F)c(Nc3ccc4c(n3)NC(=O)C(C)(C)O4)n2)cc(OC)c1OC [Tamatinib] + Cc1cc([N+](=O)[O-])ccc1NS(=O)(=O)c1cc(Cl)ccc1Cl [FH535] (first compound 0.4 µM, partner dose 1 µM)",cell count,[1],77.4%
same,cell count,[2],90.3%
same,cell count,[3],68.8%
same,cell count,[4],89.4%
same,cell count,[5],108%
same,cell count,[6],86.8%
"O=c1[nH]nc(Sc2ncc([N+](=O)[O-])s2)n1-c1ccc2c(c1)OCCO2 + CC1(C)CCC(c2ccc(Cl)cc2)=C(CN2CCN(c3ccc(C(=O)NS(=O)(=O)c4ccc(N[C@H](CCN5CCOCC5)CSc5ccccc5)c(S(=O)(=O)C(F)(F)F)c4)cc3)CC2)C1 [ABT263] (first compound 0.2 µM, partner dose 0.4 µM)",cell count,[1],85.7%
same,cell count,[2],72.8%
same,cell count,[3],17.3%
same,cell count,[4],86.9%
same,cell count,[5],61.4%
same,cell count,[6],79%
"O=c1[nH]nc(Sc2ncc([N+](=O)[O-])s2)n1-c1ccc2c(c1)OCCO2 + C[C@@H](N)c1ccc(C(=O)Nc2ccnc3[nH]ccc23)cc1 [RKI983] (first compound 0.2 µM, partner dose 0.4 µM)",cell count,[1],101%
same,cell count,[2],83%
same,cell count,[3],95.2%
same,cell count,[4],128%
same,cell count,[5],88.3%
same,cell count,[6],74.4%
"O=C(O)c1ccc(-c2c[nH]c3ncc(-c4ccccc4)cc23)cc1C1CCCC1 + c1cc(-c2cnn3cc(-c4ccc(OCCN5CCCCC5)cc4)cnc23)ccn1 [Dorsomorphin] (first compound 0.16 µM, partner dose 0.4 µM)",cell count,[1],99%
same,cell count,[2],93.7%
same,cell count,[3],96.7%
same,cell count,[4],94.6%
same,cell count,[5],133%
same,cell count,[6],103%
"COc1cc(Nc2ncc(F)c(Nc3ccc4c(n3)NC(=O)C(C)(C)O4)n2)cc(OC)c1OC [Tamatinib] + COC(=O)c1sccc1S(=O)(=O)Nc1ccc(Nc2ccccc2)cc1OC [GSK0660] (first compound 0.4 µM, partner dose 1 µM)",cell count,[1],89.8%
same,cell count,[2],99.3%
same,cell count,[3],67.3%
same,cell count,[4],102%
same,cell count,[5],99.3%
same,cell count,[6],94.1%
"O=c1[nH]nc(Sc2ncc([N+](=O)[O-])s2)n1-c1ccc2c(c1)OCCO2 + Cn1c(=O)n(-c2ccc(C(C)(C)C#N)cc2)c2c3cc(-c4cnc5ccccc5c4)ccc3ncc21 [NVP-BEZ235] (first compound 0.2 µM, partner dose 0.004 µM)",cell count,[1],99.6%
same,cell count,[2],101%
same,cell count,[3],93.5%
same,cell count,[4],79.8%
same,cell count,[5],76%
same,cell count,[6],93.9%
"O=c1[nH]nc(Sc2ncc([N+](=O)[O-])s2)n1-c1ccc2c(c1)OCCO2 + COc1ccc2c(c1)CCC1C2CCC2(C)C(NCCCCCCN3C(=O)C=CC3=O)CCC12 [U73122] (first compound 0.2 µM, partner dose 0.4 µM)",cell count,[1],93.1%
same,cell count,[2],84.3%
same,cell count,[3],92.3%
same,cell count,[4],113%
same,cell count,[5],76.4%
same,cell count,[6],106%
"O=c1[nH]nc(Sc2ncc([N+](=O)[O-])s2)n1-c1ccc2c(c1)OCCO2 + COC(=O)c1sccc1S(=O)(=O)Nc1ccc(Nc2ccccc2)cc1OC [GSK0660] (first compound 0.2 µM, partner dose 1 µM)",cell count,[1],93.3%
same,cell count,[2],100%
same,cell count,[3],109%
same,cell count,[4],93.6%
same,cell count,[5],69%
same,cell count,[6],88.5%
"O=C(Nc1cccc(Cl)c1)Nc1ncc(CCNc2ncnc3ccsc23)s1 + N#Cc1c(O)c2c(-c3ccc(-c4ccccc4O)cc3)csc2[nH]c1=O [A769662] (first compound 0.0008 µM, partner dose 2 µM)",cell count,[1],78.4%
same,cell count,[2],94%
same,cell count,[3],96.2%
same,cell count,[4],102%
same,cell count,[5],102%
same,cell count,[6],111%
"Cn1cncc1[C@@](N)(c1ccc(Cl)cc1)c1ccc2c(c1)c(-c1cccc(Cl)c1)cc(=O)n2C [tipifarnib] + COc1ccc(-c2ccc3c(N4CCOCC4)nc(N4C[C@@H](C)O[C@@H](C)C4)nc3n2)cc1CO [KU0063794] (first compound 0.01 µM, partner dose 0.02 µM)",cell count,[1],83.3%
same,cell count,[2],71.8%
same,cell count,[3],90.5%
same,cell count,[4],89.8%
same,cell count,[5],81%
same,cell count,[6],88.8%
"Cn1cncc1[C@@](N)(c1ccc(Cl)cc1)c1ccc2c(c1)c(-c1cccc(Cl)c1)cc(=O)n2C [tipifarnib] + COc1ccc(COc2ccc(Cc3cnc(N)nc3N)cc2OC)cc1 [GW2580] (first compound 0.01 µM, partner dose 1 µM)",cell count,[1],83.9%
same,cell count,[2],78.6%
same,cell count,[3],87%
same,cell count,[4],91.7%
same,cell count,[5],96%
same,cell count,[6],82.5%
